Data on 42 compounds can be found in ChEMBL document CHEMBL4888484, “Replenishing the malaria drug discovery pipeline: Screening and hit evaluation of the MMV Hit Generation Library 1 (HGL1) against asexual blood stage Plasmodium falciparum ,using a nano luciferase reporter read-out” (2022).

Among all 150,000 compounds or so, about 540 (0.36%) showed an effect of 50% or more. The list shows a part of the results.

This assay has as its system Plasmodium falciparum. Put plainly: Primary screen in NF54 nanoGlo assay, in single point, at 2uM, 72h; a lower Z score goes with more inhibition. The assay is classed as functional, Erythrocyte. Conditions: timepoint 72 hour.
On to `C[C@@H](C(=O)N1CCN(c2cccc(C(F)(F)F)c2)CC1)n1nc(-n2cccn2)ccc1=O`, for which the % Inhibition (in general, the relative decrease from the control value, in per cent) is reported as 3% and the Z score is on record as -0.55.
Take `CC(C)CC(C)N(C(=O)CCC1CCCO1)c1ccc2[nH]ccc2c1` (centres undefined): the “% Inhibition” value was 7% and the Z score is on record as -1.01.
The corresponding values for `Cc1ocnc1C(=O)[C@H](C#N)C(=O)Nc1ccc(F)c(Cl)c1` are 30% and -3.83.
For `CS(=O)(=O)c1cccc2sc(N(CCN3CCOCC3)C(=O)c3cnccn3)nc12`, in that order: 7% and -1.1.
For `CCCc1nc(CNS(=O)(=O)N2CCN(C)CC2)cs1`, in that order: -8% and 1.01.
For `C[C@H]1CN(Cc2nc3c(s2)CCC3)C(C)(C)CO1`, the “% Inhibition” value was determined as 5% and the Z score is on record as -0.52.
For `CC(=O)N1N=C(c2ccc3ccccc3c2)O[C@H]1c1ccncc1`, in that order: 2% and -0.21.
As for `Cn1c(=O)c2c([C@H]3C(=O)Nc4ccccc43)c(-c3ccc(Br)cc3)[nH]c2n(C)c1=O`, the “% Inhibition” value is -2% and the Z score is 0.16.
The corresponding values for `CC1CCN(c2nnc(C(=O)Nc3cccc(Cl)c3)c3ccccc23)CC1` are -8% and 1.29.
The corresponding values for `O=C(Nc1ccc(Cl)cn1)c1cccc(C(=O)Nc2ccc(Cl)cn2)n1` are -13% and 1.54.
The corresponding values for `CCNc1cc(CNc2ncncc2Cl)ccn1` are -3% and 0.5.
Take `Cc1cccc(CN2N=C(C(=O)N3CCCCC3)S(=O)(=O)c3ccc(C)cc32)c1`: the “% Inhibition” value is on record as -3% and the Z score was determined as 0.32.
For `CCCn1ncc(C(=O)N2C[C@H]3CC[C@@H](C2)N(CCOC)C3)c1C`, in that order: -8% and 1.08.
On to `C[C@@H](NCc1ccc2c(c1)COC(C)(C)O2)c1cccc(O)c1`, for which the “% Inhibition” value was -21% and the Z score amounted to 2.42.
The corresponding values for `Cc1nc(-c2ccncc2)nc(NCCS(C)(=O)=O)c1C` are -1% and 0.15.
For `COCCCN(CC(=O)N(CCc1c[nH]c2ccccc12)Cc1ccc(Cl)cc1)C(=O)Nc1ccccc1`, the “% Inhibition” value was -3% and the Z score stood at 0.49.
In the case of `CCc1cnc(CCNS(=O)(=O)N2CC(C)CC(C)C2)s1` (centres undefined), the “% Inhibition” value is on record as -1% and the Z score turned out to be 0.25.
`Cc1ccc(C)c(CNC2(c3nc(C(C)C)no3)CCOCC2)c1`: the “% Inhibition” value was 3% and the Z score is recorded as -0.35.
Turning to `CCN1CCC(CC(=O)N(C)[C@@H](C)c2ccon2)CC1`, the “% Inhibition” value is -5% and the Z score is on record as 0.82.
Turning to `COc1ccc(S(=O)(=O)N(C)Cc2nnc(-c3ccc(Cl)cc3)o2)cc1`, the “% Inhibition” value came out at 1% and the Z score is listed as -0.11.
With `COCCN(CC1CN(CC(O)CN2CCOCC2)CCO1)C(=O)c1ccccc1F` (centres undefined), the “% Inhibition” value is listed as -19% and the Z score was found to be 2.39.
As for `Cc1ccc2c3c(cnc2c1C)C(=O)NCCN3`, the “% Inhibition” value stood at 11% and the Z score was -1.4.
For `O=C(NCCc1nc2cc(F)ccc2s1)Nc1nncs1`, in that order: -4% and 0.47.
The corresponding values for `CCCN1C=NS(=O)(=O)c2cc(C(=O)Nc3ccccc3CC)ccc21` are -3% and 0.54.
In the case of `O=C(NC1CC1)N[C@H]1CCN(C(=O)C(C2CCC2)C2CCC2)C1`, the “% Inhibition” value turned out to be 32% and the Z score is -1.68.
Turning to `CC(C)CCn1c(C(=O)Nc2ccccc2)cc2cc(NC(=O)c3ccco3)ccc21`, the “% Inhibition” value was -8% and the Z score turned out to be 1.11.
The corresponding values for `Cn1cnn(CC(=O)N(c2ccsc2)C2CCCCC2)c1=O` are 10% and -1.12.
For `CC(C)N1CCC(N2CCN(CC#Cc3ccccc3)C[C@@H]2CCO)CC1`, in that order: -16% and 3.2.
The corresponding values for `COCCOc1ncccc1NC1CCC1` are 3% and -0.31.
As to `c1ccc2[nH]c(CNc3nc(-c4ccncc4)nc4c3CCNCC4)cc2c1`, the “% Inhibition” value is -7% and the Z score amounted to 1.42.
For `O=C(Nc1c(F)cccc1F)N1CCn2nc(C3CC3)cc2C1`, in that order: -21% and 2.36.
Take `CC[C@]1(O)CCOC2(CCN(C(=O)CC3CC3)CC2)C1`: the “% Inhibition” value was -8% and the Z score came to 1.34.
On to `CCn1cc(CN2CCCC[C@@H]2CCN(C)C)cc1C#N`, for which the “% Inhibition” value turned out to be 1% and the Z score is on record as -0.2.
For the compound `Cc1cc(CNC(=O)c2sc(C)nc2C)ncn1`, the “% Inhibition” value was determined as 20% and the Z score is given as -2.62.
The corresponding values for `O=S1(=O)CC[C@H](NC2CC=CC2)c2cc(Cl)ccc21` are -7% and 1.02.
For `Cc1ccc(CNC(=O)N[C@@H](CC(C)C)C(=O)O)cc1`, in that order: -10% and 1.23.
The corresponding values for `CS(=O)(=O)N1CCC[C@H](C(=O)Nc2cccc(OC(F)(F)F)c2)CCNC(=O)CC1` are -6% and 0.74.
Consider `O=C(c1cc2occc2c(Nc2ccc(F)cc2)n1)N1CCN(C2CCCCC2)CC1`, for which the “% Inhibition” value is -14% and the Z score is given as 1.42.
For `O=C(Nc1ccc(N2CCN(C3CCCCC3)C2=O)nc1)c1cccs1`, in that order: 8% and -0.88.
The corresponding values for `O=C(OCCOc1ccccc1F)[C@H]1CCc2cn[nH]c2C1` are -10% and 1.06.
For `CS(=O)(=O)[C@H]1CCCN(c2cccnc2C#N)CC1`, in that order: -5% and 0.93.
As for `CC(C)c1nsc(NC23CCC2CN(C(=O)CN2CCCC2=O)C3)n1` (centres undefined), the “% Inhibition” value amounted to 0% and the Z score was 0.03.
